Test results as given in ChEMBL document CHEMBL4888484, “Replenishing the malaria drug discovery pipeline: Screening and hit evaluation of the MMV Hit Generation Library 1 (HGL1) against asexual blood stage Plasmodium falciparum ,using a nano luciferase reporter read-out” (2022).
About 540 (0.36%) of roughly 150,000 compounds showed an effect of 50% or more. Some of the results follow.

These molecules were tested on Plasmodium falciparum (assay: Primary screen in NF54 nanoGlo assay, in single point, at 2uM, 72h; a lower Z score goes with more inhibition). Details: timepoint 72 hour.
Assay type: functional, Erythrocyte
`Cc1cnc(CN2CC3(CCC2=O)CCN(Cc2cccc(O)c2)CC3)cn1` was tested, and the “% Inhibition” value was -6% and the Z score was 1.11.
`O=C(Nc1cccc2cccnc12)N1CCC[C@H](CO)C1` was tested, and the “% Inhibition” value was -6% and the Z score was 1.19.
With `Cc1cccc(C2CCCCN2C(=O)c2cnc(C(C)O)s2)c1C` (stereo not drawn) the “% Inhibition” value was -9% and the Z score was 0.79.
In the case of `Cc1nn(-c2ccc3nncn3n2)c(C)c1CCC(=O)N1CCCCCC1`, the “% Inhibition” value is reported as -12% and the Z score is reported as 1.55.
For `c1ccc2c(c1)N=C(NCc1ccc3c(c1)OCO3)C1(CCCCCC1)N2`, the “% Inhibition” value was 12% and the Z score was -1.51.
In the case of `Cc1ccc(N2C(=O)NC3c4ccccc4OC2(C)C3C(=O)Nc2ccc(Cl)cc2)cc1Cl` (stereo not drawn), the “% Inhibition” value is reported as 33% and the Z score is reported as -4.51.
For `CC(C)(CNc1nc(C2CCCC2)ns1)C1(O)CCOCC1`, the “% Inhibition” value was -8% and the Z score was 1.43.
In the case of `O=C(O)c1ccc(Nc2nc(N3CCCCC3)nc(N3CCCCC3)n2)cc1`, the “% Inhibition” value is reported as 32% and the Z score is reported as -3.58.
`Cn1c(C(=O)N2CC3CCC2C3)cccc1=O` (stereo not drawn) was tested, and the “% Inhibition” value was 9% and the Z score was -1.07.
In the case of `O=C1c2ccccc2N[C@H](c2ccc3c(c2)OCCO3)N1c1ccc2c(c1)OCCO2`, the “% Inhibition” value is reported as 7% and the Z score is reported as -0.91.
In the case of `Cc1cc2c(cc1S(=O)(=O)N1CCC[C@H](C(=O)NC(C)(C)C)C1)OCC(=O)N2`, the “% Inhibition” value is reported as 0% and the Z score is reported as 0.05.
In the case of `CC1(C)C[C@]1(C(=O)N1CCS(=O)(=O)CC1)c1ccccc1F`, the “% Inhibition” value is reported as 2% and the Z score is reported as -0.31.
For `COc1ccc(NS(=O)(=O)c2ccc3[nH]c4c(c3c2)CCCCCC4)cc1`, the “% Inhibition” value was -18% and the Z score was 2.21.
`CC1(C(=O)N[C@H]2CCO[C@H](c3ccccn3)C2)CC1F` (stereo partly drawn) was tested, and the “% Inhibition” value was 30% and the Z score was -4.37.
`Cc1cc(C(=O)N2CC[C@@]3(CCCN(C4CCCC4)C3=O)C2)c(C)n1C` was tested, and the “% Inhibition” value was -6% and the Z score was 0.63.
In the case of `O=C(CS(=O)(=O)c1ccc(O)cc1)N(C1CCCCC1)C1CCCCC1`, the “% Inhibition” value is reported as -8% and the Z score is reported as 0.8.
`COC1(OC)CC2(CN(Cc3ncc(C)o3)[C@@H]2c2ccccc2)C1` was tested, and the “% Inhibition” value was -1% and the Z score was 0.15.
With `COc1ccccc1OCC(=O)N[C@@H]1C[C@H]2CC[C@@H]1C2` the “% Inhibition” value was 1% and the Z score was -0.17.
In the case of `COc1ccc(C(=O)N2[C@H](C(=O)NCc3ccco3)COC23CCN(C(=O)CC(C)(C)C)CC3)cc1`, the “% Inhibition” value is reported as 7% and the Z score is reported as -0.79.
With `O=C(N[C@H](c1ccccc1)c1cc2ccccc2o1)c1ccc2c(c1)OCO2` the “% Inhibition” value was -7% and the Z score was 0.98.
`O=S(=O)(Nc1ccc(Cc2ccccn2)cc1)c1ccc2oc3ccccc3c2c1` was tested, and the “% Inhibition” value was -3% and the Z score was 0.34.
`COc1cc(C)c(-c2cccc(C(=O)NCCc3n[nH]c(=O)n3C)c2)cn1` was tested, and the “% Inhibition” value was -7% and the Z score was 1.2.
For `O=S1(=O)CCN(Cc2nc3cc(C(F)(F)F)ccc3o2)CC1`, the “% Inhibition” value was 2% and the Z score was -0.23.
For `Cc1cnc(C(=O)NCC(=O)N2CCCCCCNC(=O)C[C@H]2c2ccccc2)cn1`, the “% Inhibition” value was -6% and the Z score was 0.94.
In the case of `COC(=O)CN(C(=O)c1cccc(N(C)C)c1)C1CCCC1`, the “% Inhibition” value is reported as 3% and the Z score is reported as -0.4.
For `O=C(Nc1nc(-c2ccc3c(c2)COC3)cs1)C1CC2CCC1C2` (stereo not drawn), the “% Inhibition” value was -18% and the Z score was 2.83.
In the case of `O=C(Nc1ccc(O)cc1)c1nn2c(c1Cl)N[C@@H](c1cccs1)C[C@H]2C(F)(F)F`, the “% Inhibition” value is reported as -9% and the Z score is reported as 1.36.
In the case of `Cc1ncc(CN(C)CC2(CO)CCC2)cn1`, the “% Inhibition” value is reported as 12% and the Z score is reported as -1.62.
For `CC(C)N(CCO)C(=O)c1ccc2oc(-c3ccc(C(F)(F)F)cc3)nc2c1`, the “% Inhibition” value was -3% and the Z score was 0.58.
For `N#CCC(=O)NCCCc1ccccc1`, the “% Inhibition” value was -15% and the Z score was 1.7.
For `C[C@H](NCCOCC1CCC1)c1cccc(O)c1`, the “% Inhibition” value was -11% and the Z score was 1.86.
With `O=C(NCC(c1ccco1)c1ccco1)NC1CCCC1` the “% Inhibition” value was -17% and the Z score was 2.43.
For `CCCc1nc(N2CCCN(C(=O)C3CCCCC3)CC2)c2c(C)nn(-c3ccccc3)c2n1`, the “% Inhibition” value was 37% and the Z score was -4.98.
In the case of `Cc1ccn(CC(=O)N[C@H]2CCN(c3ccc(=O)n(CC4CC4)n3)C2)n1`, the “% Inhibition” value is reported as 2% and the Z score is reported as -0.27.
In the case of `COc1ccc(NC(=O)c2cnc(N(C)C)nc2)cc1OC`, the “% Inhibition” value is reported as 8% and the Z score is reported as -1.59.
With `COc1ccc2cc(-c3nc(CCN(C)C(=O)CC(C)C)no3)[nH]c2c1` the “% Inhibition” value was -8% and the Z score was 1.42.
`CC(C)NC(=O)NCCOc1ccc(F)c(F)c1` was tested, and the “% Inhibition” value was -5% and the Z score was 0.76.
With `COc1cccc(OCc2nc(C(=O)NCc3cccc(C)n3)co2)c1` the “% Inhibition” value was 9% and the Z score was -1.12.
For `CC1OCCC12CN(C(=O)c1cccc(B(O)O)c1)CCO2` (stereo not drawn), the “% Inhibition” value was -9% and the Z score was 1.13.
For `S=Cc1c2n(c3ccccc13)CCCN2`, the “% Inhibition” value was -6% and the Z score was 1.15.
For `CC(C)c1cnc(CN2CCOc3ccccc3[C@@H]2C(=O)O)o1`, the “% Inhibition” value was 2% and the Z score was -0.38.
For `Cc1c(C(=O)N(Cc2ccco2)c2ccccn2)oc2ccccc12`, the “% Inhibition” value was 3% and the Z score was -0.52.
`Cc1cc(Br)ccc1CN(C)CC#N` was tested, and the “% Inhibition” value was -9% and the Z score was 1.24.
`Cc1nc(C)c(C(=O)N2C(C(=O)N(C)C)C[C@@H]3OCC[C@@H]32)s1` (stereo partly drawn) was tested, and the “% Inhibition” value was -6% and the Z score was 1.18.
For `Cc1cn2c(n1)CCC(NC1CCCC(C(F)(F)F)C1)C2` (stereo not drawn), the “% Inhibition” value was 1% and the Z score was -0.08.
For `CN1C[C@H](CNC(=O)c2ccccc2OC(F)(F)C(F)F)OCC1=O`, the “% Inhibition” value was 1% and the Z score was -0.14.
`CN(CCCc1nccn1C)CC1CCCCC1` was tested, and the “% Inhibition” value was 2% and the Z score was -0.4.
`COc1ncccc1CN1CC[C@H]2CC(=O)NC[C@H](O)C(C)(C)COCCC[C@H]2C1` was tested, and the “% Inhibition” value was -13% and the Z score was 1.73.
`Cn1ccnc(NC(=O)[C@H]2C3CCC(CC3)[C@@H]2C(F)(F)F)c1=O` was tested, and the “% Inhibition” value was -5% and the Z score was 0.68.
`O=C(c1ccc2ccccc2n1)N1CCO[C@H](c2ccccc2)C1` was tested, and the “% Inhibition” value was -1% and the Z score was 0.14.
For `COc1ccccc1Cn1ncc2[nH]c(-c3coc(-c4ccccc4)n3)nc21`, the “% Inhibition” value was -16% and the Z score was 2.25.
In the case of `CN(C)S(=O)(=O)N1CCC(N2CCc3cc(F)ccc32)CC1`, the “% Inhibition” value is reported as -8% and the Z score is reported as 0.71.
For `CCNC(=O)N(C)Cc1ncc(CC)s1`, the “% Inhibition” value was -12% and the Z score was 1.93.
For `Cc1cc(CN(Cc2ccncc2)Cc2ccc(C)s2)[nH]n1`, the “% Inhibition” value was -8% and the Z score was 1.29.
